Consider 84 compounds from paper PMC4336329 (PLoS ONE, 2015).

Hit rate of the full screen: of about 310,000 compounds, about 2,200 (0.71%) showed an effect of 50% or more. Effects have a minus sign here. The list shows a part of the results.

For the test, the target named is human ether-à-go-go-related gene (hERG) potassium channel (human, UniProt Q12809). As to the kind of experiment: primary screen, population patch clamp on CHO cells stably expressing hERG.
Sequence of human ether-à-go-go-related gene (hERG) potassium channel (Q12809 whole entry, looked up): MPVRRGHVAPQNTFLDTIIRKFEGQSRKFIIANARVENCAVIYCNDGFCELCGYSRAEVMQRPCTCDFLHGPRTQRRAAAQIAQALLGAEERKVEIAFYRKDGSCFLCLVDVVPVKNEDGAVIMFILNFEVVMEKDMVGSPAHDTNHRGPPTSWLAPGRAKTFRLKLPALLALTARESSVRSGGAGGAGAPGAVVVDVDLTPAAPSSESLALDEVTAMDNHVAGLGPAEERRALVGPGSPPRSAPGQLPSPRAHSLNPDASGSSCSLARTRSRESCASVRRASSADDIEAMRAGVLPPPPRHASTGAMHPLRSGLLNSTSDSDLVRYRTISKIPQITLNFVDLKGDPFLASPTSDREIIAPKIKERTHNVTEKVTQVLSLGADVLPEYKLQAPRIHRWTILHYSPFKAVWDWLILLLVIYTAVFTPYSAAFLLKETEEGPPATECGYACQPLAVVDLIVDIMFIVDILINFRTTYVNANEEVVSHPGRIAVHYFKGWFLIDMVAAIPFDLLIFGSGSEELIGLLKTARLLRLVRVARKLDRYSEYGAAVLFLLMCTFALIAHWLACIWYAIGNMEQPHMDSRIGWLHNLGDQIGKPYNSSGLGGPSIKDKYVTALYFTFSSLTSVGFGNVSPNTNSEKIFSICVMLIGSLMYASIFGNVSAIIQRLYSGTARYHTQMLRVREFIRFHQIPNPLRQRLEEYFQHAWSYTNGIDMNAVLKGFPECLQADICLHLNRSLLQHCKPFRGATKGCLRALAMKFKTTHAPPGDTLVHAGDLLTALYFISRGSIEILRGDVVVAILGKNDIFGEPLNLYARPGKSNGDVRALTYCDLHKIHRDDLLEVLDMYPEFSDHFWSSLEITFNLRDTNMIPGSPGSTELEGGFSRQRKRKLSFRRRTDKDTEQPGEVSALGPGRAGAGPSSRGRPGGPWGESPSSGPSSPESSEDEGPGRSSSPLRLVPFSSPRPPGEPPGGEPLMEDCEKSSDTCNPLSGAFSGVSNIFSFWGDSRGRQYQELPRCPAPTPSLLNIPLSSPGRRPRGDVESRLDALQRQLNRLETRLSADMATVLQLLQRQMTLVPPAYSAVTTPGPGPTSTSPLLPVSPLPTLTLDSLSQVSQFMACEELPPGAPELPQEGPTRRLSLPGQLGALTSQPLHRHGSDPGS
For the compound `COc1ccccc1N1C(=O)NC(=O)C2(Cc3cc(C)ccc3N(C)C2)C1=O` (stereo not drawn), the “hERG current change (%, negative = inhibition) at 1uM” value is on record as -11.9%. Regarding `COC(CN1C(=O)C(O)=C(C(C)=O)C1c1ccccn1)OC` (stereo not drawn), the “hERG current change (%, negative = inhibition) at 1uM” value stood at 4.34%. Take `O=C(NCc1ccccn1)NC1CCCCC1`: the “hERG current change (%, negative = inhibition) at 1uM” value was 1.9%. To `CCCCCC(=O)Nc1ccc(S(=O)(=O)Nc2cc(OC)nc(OC)n2)cc1` belongs 7.33%. The value for `COC(=O)/C(=N/Nc1ccccc1C)N1CCCc2ccccc21` was 12.2%; that for `O=C(Nc1nnc(Cc2ccccc2)s1)c1cccs1` was 3.73%; that for `CCC(C)[C@H]1CNC(=S)N1CCc1cccc2ccccc12` (stereo partly drawn) was 21.9%.

`CCN1CC2([N+](=O)[O-])CC=C(Cl)C([N+](=O)[O-])(C1)C2` (stereo not drawn): the “hERG current change (%, negative = inhibition) at 1uM” value amounted to 12.5%. To `COc1cc(OC)cc(C(=O)N[C@H](C(=O)OCC(=O)c2ccc3c(c2)NC(=O)CO3)C(C)C)c1` belongs 17.5%.

For `CCS(=O)(=O)N(CC(=O)Nc1cccc2ccccc12)c1ccc(OC)cc1`, the “hERG current change (%, negative = inhibition) at 1uM” value amounted to 13.9%. To `Cc1ccc(NC(=O)C(C)N2CCN(C)CC2)cc1S(=O)(=O)N1CCOCC1` (stereo not drawn) belongs 15.6%. The value for `O=C(O)CCC(=O)NNC(=O)COc1ccc2ccccc2c1Br` was 11.4%; that for `CC(C)NC(=O)CC1Nc2c3ccccc3nc(=S)n2C1=O` (stereo not drawn) was 0.671%.

With `CC1COc2ccccc2N1S(=O)(=O)c1ccccc1` (stereo not drawn), the “hERG current change (%, negative = inhibition) at 1uM” value was determined as 16.2%. In the case of `O=C1[C@@H]2Cc3c([nH]c4ccccc34)C(c3ccccc3)N2C(=O)CN1C1CCN(Cc2ccccc2)CC1` (stereo partly drawn), the “hERG current change (%, negative = inhibition) at 1uM” value was 13.1%. The value for `COC(=O)C(Cc1c[nH]c2ccccc12)NC(=O)c1cccc(S(=O)(=O)N2CCCCC2)c1` (stereo not drawn) was 2.16%; that for `COc1ccccc1C(=O)NCCC(=O)Nc1ccc(S(=O)(=O)N2C(C)CCCC2C)cc1` (stereo not drawn) was 5.48%. To `Cc1cc2c(c(=O)o1)C1(C(=O)N(CC(=O)O)c3ccccc31)C(C#N)=C(N)O2` (stereo not drawn) belongs 13.4%. The value for `COc1ccc(OC)c(/C=N/NC(=O)c2[nH]nc3c2CCc2ccccc2-3)c1` was 13.1%; that for `CC(=O)Nc1ccc(S(=O)(=O)N2CCN(c3cc4c(cc3[N+](=O)[O-])n(C)c(=O)n4C)CC2)cc1` was 8.49%.

On to `O=C(c1cccnc1)N1CCN(c2ccc([N+](=O)[O-])cc2Cl)CC1`, for which the “hERG current change (%, negative = inhibition) at 1uM” value is reported as -31.5%.

For `Cc1ccccc1S(=O)(=O)Cc1ccc(C(=O)NCCCN2CCCC(C)C2)o1` (stereo not drawn), the “hERG current change (%, negative = inhibition) at 1uM” value is reported as 4.68%. Consider `CC(=O)c1ccc(NC(=S)N2CCN(S(=O)(=O)c3ccc(F)cc3)CC2)cc1`, for which the “hERG current change (%, negative = inhibition) at 1uM” value is -0.871%. To `CCOC(=O)C(NC(C)=O)(Nc1ccc(S(=O)(=O)Nc2onc(C)c2C)cc1)C(F)(F)F` (stereo not drawn) belongs 15.8%; to `Cc1ccc(C)c(OC(C)C(=O)Nc2ccc(S(=O)(=O)Nc3nccs3)cc2)c1` (stereo not drawn), 2.83%. The value for `CCCc1nnc(NC(=O)CCC(=O)Nc2ccc(F)cc2)s1` was 14.3%; that for `Cc1ccc(OCC(=O)Oc2cccc(C)c2C)cc1` was 11.6%. To `CCCN(CC(=O)Nc1ccc(F)c(F)c1F)C(=O)C1CC(=O)N(Cc2ccccc2)C1` (stereo not drawn) belongs 0.966%; to `COCCCNc1ncnc2nc[nH]c12`, 12%; to `CCCc1cc(=O)[nH]c2nnc(SCC(=O)Nc3cccc(NC(C)=O)c3)n12`, 17.3%. `Cc1ccc(S(=O)(=O)N(CC(=O)Nc2ccc(F)cc2)C(=O)N2CCN(C)CC2)cc1`: the “hERG current change (%, negative = inhibition) at 1uM” value was found to be 15.6%. To `COc1ccc(CNC(=O)COC(=O)[C@H](Cc2c[nH]c3ccccc23)NC(=O)c2cccs2)cc1` belongs 4.32%; to `COc1cc2oc(=O)c(Br)c(C)c2c(OC)c1OC`, 8.62%; to `CC(C)C(=O)Nc1cccc(-c2csc(-c3ccccc3)n2)c1`, 9.18%. The value for `O=C(CN(C(=O)CCC(=O)Nc1nccs1)c1ccc(F)cc1)NCC1CCCO1` (stereo not drawn) was 14.7%; that for `CSc1cccc(NS(=O)(=O)c2cn(C)cn2)c1` was 10.2%; that for `COc1c(C)cccc1C(=O)NCc1ccc2c(c1)OCO2` was 7.84%.

For `Cc1ccccc1C1CC(c2ccc(Br)cc2)Nc2nc(N)nn21` (stereo not drawn), the “hERG current change (%, negative = inhibition) at 1uM” value is on record as -16.6%. To `COc1cccc(-c2cc(C(=O)N3CCCCCC3)no2)c1` belongs -0.492%. The value for `COc1ccc(OC)c(-n2c(=S)[nH]c3cc(C(=O)N4CCC(C(N)=O)CC4)ccc3c2=O)c1` was 2.01%; that for `Cc1ccc(OCc2nnc(SCC(=O)Nc3nccs3)n2-c2ccccc2)cc1C` was 11.5%; that for `COc1ccccc1NC(CC(=O)c1ccccc1)C(=O)OCC(=O)c1ccc(C)cc1` (stereo not drawn) was 7.68%. The value for `COc1cc2ccccc2cc1C(=O)Nc1ccc(S(=O)(=O)Nc2cc(C)on2)cc1` was 5.53%; that for `Cc1cccc(N=C/C(C(=O)C(F)(F)F)=C(\O)c2ccco2)c1` was 5.43%; that for `Cc1ccc(C)c(S(=O)(=O)NCc2ccc(C(=O)NCc3ccco3)cc2)c1` was -5.17%.

Regarding `NNC(=O)c1nnn(-c2nonc2N)c1CN1CCCC1`, the “hERG current change (%, negative = inhibition) at 1uM” value came to 7.77%. The value for `Cc1cc(N2C(=O)CC(N3CCN(C(c4ccccc4)c4ccccc4)CC3)C2=O)no1` (stereo not drawn) was 5.72%; that for `CS(=O)(=O)N(CC(=O)NCc1ccccn1)c1ccc2c(c1)OCCO2` was 7.58%; that for `COc1ccc(N(CC(=O)Nc2cc(OC)cc(OC)c2)S(=O)(=O)c2c(C)n[nH]c2C)cc1` was 15.7%. Consider `Cc1ccc(NC(=O)CCn2cccc2)cc1F`, for which the “hERG current change (%, negative = inhibition) at 1uM” value turned out to be 4.17%.

For the compound `Cc1c(OCC(=O)NCCN2CCOCC2)ccc2c(-c3ccccc3)cc(=O)oc12`, the “hERG current change (%, negative = inhibition) at 1uM” value is 9.14%.

As to `COc1ccc(CCNC(=O)Cc2nn(C)c(=O)c3ccccc23)cc1OC`, the “hERG current change (%, negative = inhibition) at 1uM” value was -4.49%. To `O=C(NCCN1C(=O)S/C(=C\c2ccc(Cl)cc2Cl)C1=O)C1=COCCO1` belongs 4.33%; to `O=c1c2ccccc2n2c(=S)[nH]nc2n1-c1ccccc1`, 25.1%.

Take `CCc1c(C2(O)CCCCC2)[nH]c2c(C(=O)OC)cc(Cl)cc12`: the “hERG current change (%, negative = inhibition) at 1uM” value came out at 11.3%.

In the case of `CCOC(=O)C1=C(COC(=O)COc2cc(C)ccc2C)NC(=O)NC1C` (stereo not drawn), the “hERG current change (%, negative = inhibition) at 1uM” value stood at 6.04%. The value for `CN(CCNC(=O)C1CC(=O)N(c2ccc(F)c(Cl)c2)C1)Cc1ccccc1` (stereo not drawn) was -3.07%. To `CS(=O)(=O)n1nc(-c2ccccc2)nc1NCc1ccco1` belongs 6.65%; to `CCOc1ccccc1-c1n[nH]c(=S)o1`, 20%; to `Cn1cc(Br)c(C(=O)NC(=S)N2CCN(c3ccccn3)CC2)n1`, 13.4%.

Regarding `O=C(NCc1nc2ccccc2[nH]1)C1=C[C@H](c2ccccc2)C[C@H](OCCCCO)O1`, the “hERG current change (%, negative = inhibition) at 1uM” value was determined as 4.57%. To `Cc1cc(C)c2nc(N3CCN(C(=O)c4ccco4)CC3)sc2c1` belongs 0.971%. The value for `Fc1ccc2c(c1)nnn2C1CCN(Cc2ccccc2)CC1` was -32.8%; that for `COC(=O)c1ccccc1NS(=O)(=O)c1ccc2[nH]c(=O)[nH]c2c1` was 10.4%.

Take `COc1ccccc1N1CCN(S(=O)(=O)CCNC(=O)c2cc(=O)c3ccccc3o2)CC1`: the “hERG current change (%, negative = inhibition) at 1uM” value is listed as 19.2%. The value for `Cc1cc(C)n(C(C)CNS(=O)(=O)c2ccccc2)n1` (stereo not drawn) was 13.6%.

As for `CCN(CC)S(=O)(=O)c1ccc(Cl)nc1`, the “hERG current change (%, negative = inhibition) at 1uM” value amounted to 8.21%. The value for `CCN(CC)C(=O)COc1ccc(S(=O)(=O)N2CCOCC2)cc1` was -1.36%; that for `Cn1cc(S(=O)(=O)CC(=O)Nc2ccc3c(c2)OCO3)c2ccccc21` was -1.12%. For the compound `Cc1noc(C)c1C(=O)N1CCC(C(=O)c2ccccc2)CC1`, the “hERG current change (%, negative = inhibition) at 1uM” value was determined as 0.0598%. To `O=C(N/N=C/c1cccnc1)c1ccccc1NS(=O)(=O)c1cccs1` belongs 25.5%.

On to `Cc1ccc(C(C(=O)NC2CCCCC2)N(Cc2ccco2)C(=O)C2COc3ccccc3O2)o1` (stereo not drawn), for which the “hERG current change (%, negative = inhibition) at 1uM” value is recorded as -0.947%. With `COc1ccc(C(=O)NC2CCN(C(=O)Nc3ccc(F)cc3)CC2)cc1`, the “hERG current change (%, negative = inhibition) at 1uM” value was -2%. The value for `CCOc1cc(/C=C/c2cccc[n+]2C)ccc1OCC(=O)Nc1ccc(C)cc1.[I-]` was 7.39%; that for `O=S(=O)(c1ccc(Nc2ccc(-c3ccc4c(c3)OCCO4)nn2)cc1)N1CCCC1` was -3.29%. To `Cc1nn(-c2ccccc2)c(N2CCCC2)c1/C=N/Nc1ccc(S(=O)(=O)Nc2ccccc2)cc1[N+](=O)[O-]` belongs 12.8%; to `CCOC(=O)N1CCN(C(=O)c2cccc(NC3=NC4CS(=O)(=O)CC4S3)c2)CC1` (stereo not drawn), 8.98%. As to `COCCNC(=O)C1=C(N)C(C(=O)Nc2ccc(C)c(S(=O)(=O)N3CCCCC3)c2)SC1=Nc1ccc(C)cc1C` (stereo not drawn), the “hERG current change (%, negative = inhibition) at 1uM” value is reported as 10.8%. The value for `CCSC1=C(C#N)C(=O)n2c1cc1c2CCCC1` was 3.51%; that for `CCOC(=O)c1sc2nc3n(c(=O)c2c1C)CCC3` was 4.66%. The value for `CC1CCc2c(C(=O)Nc3ccc(OC(F)(F)F)cc3)csc2C1` (stereo not drawn) was -3.13%; that for `COc1ccc(C(=O)N/C(=C\c2cn(S(=O)(=O)N(C)C)c3ccccc23)C(=O)NCCN2CCOCC2)cc1` was 8.08%; that for `CCCc1cc(=O)oc2cc(OCC(=O)N3CCC(C(=O)O)(c4ccccc4)CC3)ccc12` was 8.14%. To `CSc1ccccc1NC(=O)Nc1cccc(Cl)c1C` belongs 11.9%.
